Results as given in the BET-seq Pho4 binding data (Le et al. 2018).
The other results are listed elsewhere or left out. Values were computed here from the reads of four pooled replicates and scatter widely.

These sequences were tested against T1, Pho4 (S. cerevisiae) (UniProt P07270) (assay: relative binding free energy (BET-seq); higher = weaker binding). Details: reference: library average.
T1 sequence: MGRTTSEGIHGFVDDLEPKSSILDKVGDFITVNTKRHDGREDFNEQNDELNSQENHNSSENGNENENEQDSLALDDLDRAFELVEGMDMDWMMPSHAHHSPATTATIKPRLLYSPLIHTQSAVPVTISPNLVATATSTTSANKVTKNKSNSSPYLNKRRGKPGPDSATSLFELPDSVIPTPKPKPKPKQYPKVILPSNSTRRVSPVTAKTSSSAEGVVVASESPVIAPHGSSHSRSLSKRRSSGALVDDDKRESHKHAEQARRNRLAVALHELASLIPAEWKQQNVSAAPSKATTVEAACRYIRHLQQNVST

CTTAACACGTGATGTT was tested. Which “relative binding free energy” value did it give?
Its value is 0.04 kcal/mol.

Which “relative binding free energy” value does the source give for CTGTACACGTGGTAAG here?
The value was 0.07 kcal/mol.

With CGGGACACGTGGGGCG as the sequence, how does the “relative binding free energy” value read?
The value was -0.11 kcal/mol.

Which “relative binding free energy” value does the source give for GTATTCACGTGGTAGC here?
Its value is 0.24 kcal/mol.

For TTAGTCACGTGTATGA, which “relative binding free energy” value is on record?
Its value is 0.11 kcal/mol.

TGAGCCACGTGGGTGG was tested. Which “relative binding free energy” value did it give?
The value was -0.24 kcal/mol.

For GGGGTCACGTGTCCGA, which “relative binding free energy” value is on record?
Its value is 0.18 kcal/mol.

With GACTTCACGTGGGGGT as the sequence, how does the “relative binding free energy” value read?
The value was 0.21 kcal/mol.

How did the “relative binding free energy” value turn out when TGCATCACGTGGAGTA was run?
Its value is 0.09 kcal/mol.

How did the “relative binding free energy” value turn out when TATGCCACGTGATGTG was run?
Its value is 0.11 kcal/mol.

How did the “relative binding free energy” value turn out when ATCGGCACGTGTGGAT was run?
The value was -0.02 kcal/mol.

With TAGAGCACGTGGTCGT as the sequence, how does the “relative binding free energy” value read?
Its value is -0.29 kcal/mol.

How did the “relative binding free energy” value turn out when TCGTGCACGTGTGGGA was run?
The value was -0.01 kcal/mol.

How did the “relative binding free energy” value turn out when TGTTTCACGTGTGATC was run?
Its value is 0.33 kcal/mol.

Which “relative binding free energy” value does the source give for AGGCTCACGTGGAGAT here?
The value was 0.32 kcal/mol.

Which “relative binding free energy” value does the source give for CTAGTCACGTGGTAAT here?
Its value is 0 kcal/mol.

With AGGAACACGTGTGTGC as the sequence, how does the “relative binding free energy” value read?
Its value is 0.1 kcal/mol.

For CGGTGCACGTGTGTTT, which “relative binding free energy” value is on record?
Its value is 0.01 kcal/mol.

Which “relative binding free energy” value does the source give for TTTTTCACGTGTGAGC here?
The value was 0.3 kcal/mol.

With CCTGGCACGTGTGGGG as the sequence, how does the “relative binding free energy” value read?
The value was -0.05 kcal/mol.

How did the “relative binding free energy” value turn out when GTTTGCACGTGAACTG was run?
The value was 0.2 kcal/mol.

TTTGGCACGTGTTCCG was tested. Which “relative binding free energy” value did it give?
Its value is -0.2 kcal/mol.

With TGATGCACGTGCTAGT as the sequence, how does the “relative binding free energy” value read?
Its value is 0 kcal/mol.

How did the “relative binding free energy” value turn out when CGTAGCACGTGCGGGT was run?
Its value is -0.18 kcal/mol.

GTTTTCACGTGAAGGA was tested. Which “relative binding free energy” value did it give?
Its value is 0.47 kcal/mol.

For GGATGCACGTGAAAGG, which “relative binding free energy” value is on record?
The value was 0.21 kcal/mol.

How did the “relative binding free energy” value turn out when TGAGCCACGTGGTGGC was run?
The value was -0.02 kcal/mol.

With TGAGACACGTGATGGG as the sequence, how does the “relative binding free energy” value read?
The value was 0.15 kcal/mol.

With GCGTCCACGTGATTGG as the sequence, how does the “relative binding free energy” value read?
The value was 0.49 kcal/mol.

For TTAATCACGTGGGGGT, which “relative binding free energy” value is on record?
The value was -0.06 kcal/mol.

TAGAACACGTGATGTG was tested. Which “relative binding free energy” value did it give?
Its value is 0.12 kcal/mol.

How did the “relative binding free energy” value turn out when TTCGGCACGTGATAGT was run?
Its value is -0.03 kcal/mol.

With TCGGCCACGTGGGAGG as the sequence, how does the “relative binding free energy” value read?
Its value is -0.14 kcal/mol.

AAGGTCACGTGTGCAT was tested. Which “relative binding free energy” value did it give?
Its value is 0.21 kcal/mol.

For CTGGCCACGTGATGTG, which “relative binding free energy” value is on record?
The value was 0.05 kcal/mol.

For TATGGCACGTGGCGAA, which “relative binding free energy” value is on record?
The value was -0.18 kcal/mol.

TGGTGCACGTGGGATA was tested. Which “relative binding free energy” value did it give?
The value was -0.06 kcal/mol.

For CGGGGCACGTGATGTA, which “relative binding free energy” value is on record?
Its value is 0.07 kcal/mol.

TTTCACACGTGGCGGG was tested. Which “relative binding free energy” value did it give?
Its value is -0.05 kcal/mol.

Which “relative binding free energy” value does the source give for GGGGCCACGTGAATTT here?
The value was 0.38 kcal/mol.

How did the “relative binding free energy” value turn out when AAAAACACGTGGTGTT was run?
Its value is -0.13 kcal/mol.

For TTGTTCACGTGCCCGT, which “relative binding free energy” value is on record?
Its value is 0.37 kcal/mol.

Which “relative binding free energy” value does the source give for TGTTACACGTGTGATC here?
The value was 0.16 kcal/mol.

Which “relative binding free energy” value does the source give for AGGGTCACGTGATAAA here?
Its value is 0.1 kcal/mol.

For AACGTCACGTGGGTTT, which “relative binding free energy” value is on record?
The value was -0.03 kcal/mol.

CATAGCACGTGTGGGT was tested. Which “relative binding free energy” value did it give?
The value was 0.03 kcal/mol.

With TTGGGCACGTGGTGGT as the sequence, how does the “relative binding free energy” value read?
Its value is -0.06 kcal/mol.

For GTTAGCACGTGTGGTC, which “relative binding free energy” value is on record?
The value was 0.05 kcal/mol.

How did the “relative binding free energy” value turn out when ATATTCACGTGTTGTG was run?
Its value is 0.14 kcal/mol.

For AGGATCACGTGGTGAG, which “relative binding free energy” value is on record?
The value was 0.12 kcal/mol.

With TCGTTCACGTGGTCTG as the sequence, how does the “relative binding free energy” value read?
Its value is 0.04 kcal/mol.

For TTGTTCACGTGAGTAA, which “relative binding free energy” value is on record?
The value was 0.31 kcal/mol.

For TCAGGCACGTGGGGGA, which “relative binding free energy” value is on record?
Its value is -0.21 kcal/mol.

TGTAGCACGTGACTTT was tested. Which “relative binding free energy” value did it give?
The value was -0.02 kcal/mol.

Which “relative binding free energy” value does the source give for ATTTTCACGTGCGGAG here?
Its value is 0.26 kcal/mol.

Which “relative binding free energy” value does the source give for GTAAACACGTGCGTGG here?
Its value is -0.09 kcal/mol.

With TCTTGCACGTGAGGTT as the sequence, how does the “relative binding free energy” value read?
Its value is 0.16 kcal/mol.
